We go through 22 molecules from article PMC12136788.

This is one part of the list.

To fix the notation:
B1: ENSG00000107863:be:win_4251|CDS|ENSG00000107863|bound_else_gene|NA|bound_elsewhere_windowed (ssRNA)
RNA: GGGAGUUCUACAGUCCGACGAUCUAGUCGCAAGAGGAAGAAGCCGAAAGAAAAAGCACAGCCUAGCAGCUCAGAAGAUGAACUGGACAAUGUAUUUUUUAAGAAAGAAAAUGUGGAACAGUGUCACAAUGAUACUAAAGAGGACAACAGAGGAUUGAGCAUCA
B2: chr10:73479331:73479449:-|CDS|ENSG00000107758|unk|total|mutant (ssRNA)
RNA: GGGAGUUCUACAGUCCGACGAUCGUUGAUGUUCUGAAGAACCACUUGGUGAAAGAAGGUCGAGCCGAUGAAGAAAUUGCGCUCCGAAUUAUCAAUGAGGGUGCUGCCAUCCUUCGGAGAGAGAAAACCAUGACCGAAGCCGAACAACAGAGGAUUGAGCAUCA
B3: chr17:76725537:76725647:-|CDS|ENSG00000070495|unk|FALSE|unique (ssRNA)
RNA: GGGAGUUCUACAGUCCGACGAUCUACUCAGUGAAGAUGAAGAUGAAAUACUACAUCGAGUACAUGGAGAGCACUCGAGAUGAUAGUCCCCUUUACAUCUUUGACAGCAGCUAUGGUGAACACCCUAAAAGAAGGAAACUUUUGCAACAGAGGAUUGAGCAUCA
B4: chr20:45293444:45293825:-|three_prime_utr|ENSG00000124159|control|control|control (ssRNA)
RNA: GGGAGUUCUACAGUCCGACGAUCCGGGGCGGAGGCGCUGGCGGGCUUCCGGCAUUGAGCUGAGUUGGCCUCGCCCGGACCAUUAGGCGGACUGCGGCGUCAGGGGGAUAGCGGGUGGUGAGGGAAGGGGCACGUGCUAGACCGCAACAGAGGAUUGAGCAUCA
B5: chr4:99204923:99205063:-|CDS|ENSG00000172955|control|control|control (ssRNA)
RNA: GGGAGUUCUACAGUCCGACGAUCGAAGAGCAGACAGCACAUCCCUAAACUGGUUGCUGAUUAUAUGGCAGAGAAGUUGAAUCUAGAUCCACUAAUUACUCAUACUCUGAAUCUUGAUAAAAUCAAUGAAGCAGUUGAAUUAAUCAACAGAGGAUUGAGCAUCA
B6: chr10:110602053:110602155:+|CDS|ENSG00000108055|unk|total|mutant (ssRNA)
RNA: GGGAGUUCUACAGUCCGACGAUCCAGUUUGUAAAUUUCUCCGAGCAGAAAGAAAAGUUAAUAAAGCGUCAAGAAGAGUCCGACCGGGGUUACAAAUCAAUCAUGGAACUGAUGAAUGUACUUGAACUUCGGAAAUAUGAAGCUCAACAGAGGAUUGAGCAUCA
B7: chr17:41822664:41822765:+|3pUTR|ENSG00000141756|msi1|FALSE|unique (ssRNA)
RNA: GGGAGUUCUACAGUCCGACGAUCUUCCUUAAAAUGUUUGGAUUUGCAAAGCCAAUUUGGGGCCUGUGGAGCCUGGGGUUGGAUAGGGCCAUGGCUGGUCCCCCACCAUACCUCCCCUCCACAUCACUGACACAGCUGAGCUUGCAACAGAGGAUUGAGCAUCA
B8: chr22:41636480:41636706:+|CDS|ENSG00000196419|unk|FALSE|unique (ssRNA)
RNA: GGGAGUUCUACAGUCCGACGAUCAUGGGCCACGGAUCUGACUACUCACUCAGUGAAGUGCUGUGGGUCUGUGCCAACCUCUUUAGUGAUGUCCAAUUCAAGAUGAGUCAUAAGAGGAUCAUGCUGUUCACCAAUGAAGACAACCAACAGAGGAUUGAGCAUCA
B9: chr4:70689993:70690094:+|CDS|ENSG00000132467|unk|total|mutant (ssRNA)
RNA: GGGAGUUCUACAGUCCGACGAUCAGAGCCAAAAUCCGAAGAAGAGGCCAGGUUCGUGAAGUUCGUAAAGAAGAGCAACGUUACCGUGGUGAAUUAUCUGGCAUUCGUGCAGGAGUUAAAAAGAGCAUUAAGCUUAAAUGAAGUCAACAGAGGAUUGAGCAUCA
B10: chr12:39618871:39619093:-|CDS|ENSG00000173208|unk|total|mutant (ssRNA)
RNA: GGGAGUUCUACAGUCCGACGAUCUAUUAUGAUGUUCUCCCAAUCUGUGGCUCACUUGUAUUCCAAUCUGACCAAACCUAUUUCCGAUGUAAUGCUGACCUCCUAUACACUCAUUCAAACUGCUACAUCCAGAGGAGCAAGCCCCAACAGAGGAUUGAGCAUCA
B11: chr12:14501823:14501924:+|3pUTR|ENSG00000171681|unk|total|mutant (ssRNA)
RNA: GGGAGUUCUACAGUCCGACGAUCUUUUGUUGUUUGCUCUUUUGCUUUAAAUAUUCUCCAAAUUACCAUUUAUGCAACAUGGUCCGGGUUAAUACUGCAUGGUAUUCAUUUAUCUUGUUUCAUGAACUUUCCAGUACUGUACAACAACAGAGGAUUGAGCAUCA
B12: chr5:137939581:137939637:-|3pUTR|ENSG00000031003|msi1_unk|total|mutant (ssRNA)
RNA: GGGAGUUCUACAGUCCGACGAUCUGUCCGUAAAAUUUUGCAAUUCGCUGGUCACACAGCUCCCGGAUGAAGAUAACAGUUGGCCGACCAAAAGGUGACCUCGCUCCGUAUAUUGAAAACACACACCACACAUCACACACAGAACAACAGAGGAUUGAGCAUCA
B13: ENSG00000021826:stop:overlap|stop_codon|ENSG00000021826|stop_codon|NA|stop_codon (ssRNA)
RNA: GGGAGUUCUACAGUCCGACGAUCGCAAGGUGGACUCCAAGAGUCUUUUCCACUACAGGCAGUACAGUGCUGGAAAAGCAGCAUAGAGAUGCAGACACCCCAGCCCCAUUAUUAAAUCAACCUGAGCCACAUGUUAUCUAAAGGCAACAGAGGAUUGAGCAUCA
B14: ENSG00000198589:be:win_4701|CDS|ENSG00000198589|bound_else_gene|NA|bound_elsewhere_windowed (ssRNA)
RNA: GGGAGUUCUACAGUCCGACGAUCCAGUGAAAAUGAGAAUGUAUCACUCUCUGAAAUCACACCAGCAGCAUUCAGCACUUUAACUACGGCAUCAGUGGAAGAAUCUGAAAGCACAUCAUCUGCUCGAAGGAGGGACUCAGGCAUCAACAGAGGAUUGAGCAUCA
B15: chrX:51490010:51491748:-|three_prime_utr|ENSG00000196368|control|control|control (ssRNA)
RNA: GGGAGUUCUACAGUCCGACGAUCACUCCUUCCCUGUCUAUACCACUGACUCUUGCUCUGGUUGUUGUACUCUUAUACGUGAAUAGACUCUUAAUUCAGCACCUAUAGCCUUUUGUUGUGCUUUUUUGAUGUGUCUGCCUUCAUCAACAGAGGAUUGAGCAUCA
B16: chr15:77046258:77046342:-|3pUTR|ENSG00000140391|msi1_unk|total|mutant (ssRNA)
RNA: GGGAGUUCUACAGUCCGACGAUCAAAAAUAUUUACUGCCGUCCAAUAAGACCGCAGCUGUACAAAAUGACUAAAACCGAUUGCCGGAUCAUAUGGCGUAUAUCUUGGUUCAUCUUCAAAAUCAGAGACUGAGCUUUGAAACUACAACAGAGGAUUGAGCAUCA
B17: chr13:51761002:51761103:+|3pUTR|ENSG00000139668|unk|FALSE|unique (ssRNA)
RNA: GGGAGUUCUACAGUCCGACGAUCACGGCAAGAUUGUAAUCCUGCUGUAUUCCUCGCCCUCUGUAUUCUAUCCCUUUAAAAACUAGAUAUUUAAACAUUUUAUCCUAAUGUGUUUCAUCAGAACACUUUGCACACUUUCUUACUCAACAGAGGAUUGAGCAUCA
B18: chr15:56434137:56434395:-|CDS|ENSG00000138587|control|control|control (ssRNA)
RNA: GGGAGUUCUACAGUCCGACGAUCAGAGGAAGAGGAGAACUUUAGAAAAACUAUGCUAGCUAAAUUUGCUGAGGAUGAUCGAAUAGAAUUAAUGAAUGCUCAGAAACAAAGAAUGAAGCAGCUGGAACACAGGAGGGCUGUGGACAACAGAGGAUUGAGCAUCA
B19: chr8:70573615:70573716:-|3pUTR|ENSG00000067167|msi1|total|mutant (ssRNA)
RNA: GGGAGUUCUACAGUCCGACGAUCCAGUGUUCACAUCUUGUUCCCCAUUUCUCACUUGUGUCACCAGCUGUUUGUGCCAUUUUCCGUGUAAAAGUUGCAGACCUAUCCGAUCUGCAGUUUAAGUUGCCAUGCUGCCCGGAAAUUCAACAGAGGAUUGAGCAUCA
B20: ENSG00000070961:be:win_1951|CDS|ENSG00000070961|bound_else_gene|NA|bound_elsewhere_windowed (ssRNA)
RNA: GGGAGUUCUACAGUCCGACGAUCGCAUUCAGAGAUUUUCCAGCAGGAGAACCAGAACCAGAGUGGGAUAAUGAAAAUGAUAUUGUCACCGGCCUUACAUGCAUUGCUGUUGUGGGGAUUGAAGAUCCUGUGAGACCUGAGGUGCAACAGAGGAUUGAGCAUCA
B21: ENSG00000198589:be:win_6851|CDS|ENSG00000198589|bound_else_gene|NA|bound_elsewhere_windowed (ssRNA)
RNA: GGGAGUUCUACAGUCCGACGAUCAAGUUCCAAAGUUUCACUAUGGUACUCAUUACUCAACUGCAAGUUUUGUUCUUGCAUGGCUGCUAAGAAUAGAACCCUUUACAACUUAUUUCCUAAAUUUGCAAGGAGGCAAAUUUGAUCCAACAGAGGAUUGAGCAUCA
B22: ENSG00000114744:stop:overlap|stop_codon|ENSG00000114744|stop_codon|NA|stop_codon (ssRNA)
RNA: GGGAGUUCUACAGUCCGACGAUCAACAAGCAUUGGAAGAGAUGAAGACAAAUCACUGUAGGAGAGUUGUUCGCAACAUCAAGUAGUACCAGUUUUAAGGUUUUAAUUCAUUUGAAUCACUUAUGAAUUGAUGAUAUACAGCAACAACAGAGGAUUGAGCAUCA

The assay deals with MSI1 full-length (mouse, UniProt Q61474 1-362). Kind of assay: nsRBNS (natural sequence RNA bind-n-seq); RBNS binding buffer (assumed for nsRBNS): 25 mM Tris pH 7.5, 150 mM KCl, 3 mM MgCl2, 0.01% Triton X-100, 500 ug/ml BSA, 20 U/ml SUPERase-In, 4 C; UNK is unkempt and MSI1 is Musashi-1; names of the RNAs are library labels; protein concentration not given here; high values mean tight binding.
Sequence of UniProt Q61474 (Q61474 whole entry): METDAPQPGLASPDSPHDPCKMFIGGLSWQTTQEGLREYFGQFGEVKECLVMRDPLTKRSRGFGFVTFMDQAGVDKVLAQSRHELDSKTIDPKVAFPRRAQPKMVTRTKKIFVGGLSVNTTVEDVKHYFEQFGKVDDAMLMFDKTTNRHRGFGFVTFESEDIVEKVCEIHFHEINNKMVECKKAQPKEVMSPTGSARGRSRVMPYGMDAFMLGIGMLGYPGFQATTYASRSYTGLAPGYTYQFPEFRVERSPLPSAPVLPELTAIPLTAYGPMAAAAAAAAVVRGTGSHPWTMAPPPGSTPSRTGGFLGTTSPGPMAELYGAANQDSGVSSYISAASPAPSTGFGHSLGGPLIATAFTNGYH
Take B1: the binding signal amounted to 0.561 enrichment R.
As to B2, the binding signal stood at 0.479 enrichment R.
The figure for B3 is 0.324 enrichment R.
With B4, the binding signal is 0.527 enrichment R.
In the case of B5, the binding signal was found to be 0.405 enrichment R.
Consider B6, for which the binding signal came to 0.336 enrichment R.
As to B7, the binding signal amounted to 0.452 enrichment R.
On to B8, for which the binding signal amounted to 0.384 enrichment R.
The molecule B9 came in with a binding signal of 0.548 enrichment R.
Regarding B10, the binding signal was 0.621 enrichment R.
As for B11, the binding signal was found to be 0.513 enrichment R.
The molecule B12 returned a binding signal of 0.8 enrichment R.
Turning to B13, the binding signal stood at 0.308 enrichment R.
B14 displayed a binding signal of 0.426 enrichment R.
As to B15, the binding signal was found to be 1.36 enrichment R.
The molecule B16 showed a binding signal of 0.244 enrichment R.
Turning to B17, the binding signal stood at 14.4 enrichment R.
Molecule B18 gave a binding signal of 3.42 enrichment R.
In the case of B19 it was 0.472 enrichment R; in that of B20, 0.449 enrichment R.
B21 came in with a binding signal of 0.297 enrichment R.
B22 gave a binding signal of 16.3 enrichment R.
